Experimental data from PubChem BioAssay AID1460 (National Center for Advancing Translational Sciences (NCATS), 2008).
In all, about 270,000 compounds went through this assay and about 5,800 (2.1%) were called active. Inconclusive results, whose numbers are uncertain, are shown with a selection of clear calls. Calls come from the whole dose curve; as a rule, active = well fitted inhibition curve with a large enough effect; inconclusive = small, poorly fitted or top-dose-only effect; inactive = flat fitted curve, though single readings scatter. Where the call is inconclusive, the potency comes from a doubtful curve fit.
Note: nearly all actives have a fitted effect of over 55% in size.
Potency is the fitted concentration of half-maximal effect; tags give direction and shape of the fitted curve.

These compounds were tested against Microtubule-associated protein tau (Homo sapiens) (UniProt P10636) (assay: qHTS for Inhibitors of Tau Fibril Formation, Thioflavin T Binding). Conditions: recombinant tau K18 P301L, heparin-induced fibrillization, ThT fluorescence; series mostly up to 57.4 µM.
Chain of UniProt P10636 (P10636 whole entry, looked up): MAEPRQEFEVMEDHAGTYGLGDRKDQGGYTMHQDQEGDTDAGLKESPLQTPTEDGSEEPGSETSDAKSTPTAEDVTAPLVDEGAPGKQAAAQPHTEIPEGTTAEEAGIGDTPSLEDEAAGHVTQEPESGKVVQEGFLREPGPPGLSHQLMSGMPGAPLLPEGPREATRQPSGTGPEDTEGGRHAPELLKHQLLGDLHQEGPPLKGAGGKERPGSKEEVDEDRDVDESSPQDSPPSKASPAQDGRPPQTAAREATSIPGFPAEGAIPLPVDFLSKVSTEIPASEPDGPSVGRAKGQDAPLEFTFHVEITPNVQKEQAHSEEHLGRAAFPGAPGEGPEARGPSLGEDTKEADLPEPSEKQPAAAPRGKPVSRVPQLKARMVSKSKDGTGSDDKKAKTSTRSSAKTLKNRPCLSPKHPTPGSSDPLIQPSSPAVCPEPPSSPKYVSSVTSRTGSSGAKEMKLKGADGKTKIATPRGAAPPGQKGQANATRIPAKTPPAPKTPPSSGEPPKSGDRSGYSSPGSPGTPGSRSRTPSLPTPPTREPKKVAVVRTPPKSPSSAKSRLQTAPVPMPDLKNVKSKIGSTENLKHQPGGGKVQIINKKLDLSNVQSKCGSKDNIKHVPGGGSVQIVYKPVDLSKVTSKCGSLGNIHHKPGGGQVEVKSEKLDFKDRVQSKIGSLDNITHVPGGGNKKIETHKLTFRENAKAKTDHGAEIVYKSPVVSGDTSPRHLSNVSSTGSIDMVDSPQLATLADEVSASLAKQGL
Procedure, shortened: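 Fibril formation assay: tau K18 P301L at 15 uM with trace Alexa 594 label, heparin inducer 20 uM, pH 7 sodium acetate buffer, 37 C for 6 hr; endpoint ThT signal.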
`CC(Oc1ccccc1)C(=O)Nc1ccccc1O` (stereo not given) was tested, and the Potency was “inactive”. `CCCCOc1ccc2c(c1)C(=O)c1cc(O)ccc1-2` was tested, and the Potency was active: 11.2 µM. `Cc1cc(=O)oc2cc(OCC(O)CN3CCN(c4ccc(F)cc4)CC3)ccc12` (stereo not given) was tested, and the Potency was inconclusive: 4.47 µM [inhibitor, partial curve]. For `O=C(NNc1ccc(Cl)cc1)c1sccc1Cl`, the Potency was inconclusive: 35.5 µM [inhibitor, partial curve]. In the case of `CCCCOCC1CC(CC#CCN2CCCCC2)C(=O)O1` (stereo not given), the Potency is reported as “inactive”. With `CCC(CC)c1nn2c(=O)cc(COc3ccc(NC(=O)c4cccc(Cl)c4)cc3)nc2s1` the Potency was inconclusive: 0.708 µM [inhibitor, full curve]. In the case of `COc1ccc(/C=N/NC(=O)c2ccc(NC(=O)c3cccc([N+](=O)[O-])c3)cc2)c(OC)c1`, the Potency is reported as inconclusive: 1.12 µM [inhibitor, full curve]. `COc1cccc(N=Cc2ccc(O)cc2O)c1` was tested, and the Potency was inconclusive: 15.8 µM [inhibitor, partial curve]. With `C/C(=N\NC(=O)c1ccccc1)c1ccc(N2CCOCC2)cc1` the Potency was inconclusive: 14.1 µM [inhibitor, partial curve]. In the case of `Cc1ccc(NC(=O)CN2C(=O)N/C(=C/c3ccc(C)o3)C2=O)cc1`, the Potency is reported as inconclusive: 20 µM [inhibitor, partial curve]. For `COCCNC(=O)C1CCN(S(=O)(=O)c2ccccc2)CC1`, the Potency was “inactive”. `CC(=O)Nc1ccc(OCCOc2ccc(/C=C3/C(=N)N4C=CSC4=NC3=O)cc2)cc1` was tested, and the Potency was inconclusive: 5.01 µM [inhibitor, partial curve]. `COc1ccc(OC)c(/C=N/c2c(-c3ccc(O)c(OC)c3)nc3ccccn23)c1` was tested, and the Potency was inconclusive: 5.01 µM [inhibitor, partial curve]. In the case of `COc1ccc(CCNC(=O)c2cc(-c3ccncc3)nc3c(Cl)cccc23)cc1OC`, the Potency is reported as inconclusive: 39.8 µM [inhibitor, single point]. With `COc1ccc(OC)c(-n2c(-c3cnccn3)n[nH]c2=S)c1` the Potency was “inactive”. `COc1ccc2c(c1)CC/C(=C\C=C\c1ccccc1OC)C2=O` was tested, and the Potency was “inactive”. With `Cc1snc(S(=O)(=O)/C(C#N)=N\Nc2ccccc2)c1C#N` the Potency was inconclusive: 15.8 µM [inhibitor, partial curve]. With `O=C(O)CCC(=O)N1N=C(c2cccs2)CC1c1cn(-c2ccccc2)nc1-c1ccccc1` (stereo not given) the Potency was inconclusive: 14.1 µM [inhibitor, partial curve]. `CCOc1ccc(OCCSc2nnnn2-c2ccccc2)cc1` was tested, and the Potency was “inactive”. In the case of `CCOc1ccc(N2C(=O)CC(Sc3nc(CC(C)C)ccc3C#N)C2=O)cc1` (stereo not given), the Potency is reported as inconclusive: 14.1 µM [inhibitor, partial curve].
